# Data from PubChem BioAssay (Tox21).
# Where “and” joins values, the source holds several entries; their conditions need not be identical. Equal values may be shown once. This list was built around the results that the source calls inconclusive (neither active nor inactive); the mix of calls is not that of the screen. A potency beside an inconclusive call is a rough fit, not a confirmed value. Calls of active or inactive are those of the source. The call rests on the fitted dose curve; in most records, active means well fitted inhibition curve with a large enough effect in the repeat runs; inconclusive means weak or mixed curves; inactive means no such curve, though single readings can be large or run the other way.
# Molecular target: Cytochrome P450 3A4 (Homo sapiens) (UniProt P08684)
# Test: Cytochrome P450 Family 3 Subfamily A Member 4 (CYP3A4) small molecule antagonists: luciferase reporter qHTS assay (AID 1671201); further: nearly all actives have a fitted effect of over 50% in size
# Conditions: P450-Glo CYP3A4 enzyme, luciferin luminescence, 1 h; series mostly up to 115 µM
# Outline: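 Compounds in DMSO were pin-transferred onto CYP3A4 enzyme-substrate mix and held 10 min at room temperature. NADPH regenerating solution started the reaction for 1 h; luciferin detection reagent stopped it, and luminescence was read after 20 min.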
# Potency means the concentration at half of the fitted maximal effect; tags describe the fitted curve by direction and shape.
# Chain of UniProt P08684 (P08684 whole entry, looked up): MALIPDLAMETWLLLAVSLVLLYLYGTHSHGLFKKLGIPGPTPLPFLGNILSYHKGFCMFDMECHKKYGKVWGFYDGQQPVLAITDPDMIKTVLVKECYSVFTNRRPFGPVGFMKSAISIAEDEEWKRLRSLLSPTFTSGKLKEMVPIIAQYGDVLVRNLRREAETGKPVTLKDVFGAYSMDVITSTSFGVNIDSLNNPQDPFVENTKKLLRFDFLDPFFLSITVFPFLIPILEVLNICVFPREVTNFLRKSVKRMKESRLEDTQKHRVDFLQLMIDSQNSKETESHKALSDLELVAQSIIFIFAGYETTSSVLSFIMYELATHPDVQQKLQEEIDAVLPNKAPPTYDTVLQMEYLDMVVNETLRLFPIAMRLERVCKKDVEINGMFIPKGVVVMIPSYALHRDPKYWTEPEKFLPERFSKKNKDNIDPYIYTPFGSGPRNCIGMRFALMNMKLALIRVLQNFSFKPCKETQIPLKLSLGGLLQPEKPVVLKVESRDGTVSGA
row,Structure (SMILES),Potency
1,N#CN=C1SCCN1Cc1ccc(Cl)nc1,inactive
2,O=C([O-])c1ccccn1.O=C([O-])c1ccccn1.O=C([O-])c1ccccn1.[Cr+3],"inconclusive: 89.6 µM [inhibitor, partial curve, poor fit]"
3,CCCCCCCCCCCCCCn1cc[n+](C)c1,"inconclusive: 70.2 µM [inhibitor, partial curve] and inconclusive: 89.3 µM [inhibitor, single point]"
4,O=C/C=C/c1ccccc1,"inconclusive: 89.4 µM [inhibitor, partial curve, poor fit]"
